# Measured values taken from the supplement of paper PMC10037445.
# Whole data set: some 2,900 compounds, median “NF-kB SEAP reporter activity, fold change vs agonist alone” near 0.99, cut for the highest 2% near 2.6. This is one part of the list.
# Assays:
# RAW-Dual [1] = experiment: NF-kB SEAP reporter activity, fold change vs agonist alone; higher = enhanced NF-kB activity; details: cytotoxicity flag (confluency mask): not cytotoxic
# How it was run: (§1)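 RAW-Dual macrophages (50,000 cells/well in DMEM, 384-well plates) received 50 nL of library stock by pin tool, then a PRR agonist 1 h later, and were kept at 37 °C, 5% CO2. After 20 hours, supernatant was read for IRF by QuantiLuc luminescence and for NF-κB by QuantiBlue absorbance at 620 nm. Reporter activity is fold change over agonist-alone wells. Cytotoxic wells had IncuCyte confluency below 70% of agonist controls in both mask sets.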
# RAW-Dual [2] = experiment: NF-kB SEAP reporter activity, fold change vs agonist alone; cytotoxicity flag (confluency mask): not cytotoxic; higher = enhanced NF-kB activity
# How it was run: as §1
# [3] = library stock concentration (final ~1000-fold dilution): 10 mM, agonist: Imiquimod (TLR7) […]
# [4] = library stock concentration (final ~1000-fold dilution): 10 mM, agonist: MPLA (TLR4) […]
# [5] = agonist: ODN 1826 (TLR9) 0.5 ug/mL
# [6] = agonist: Pam2CSK4 (TLR2/6) 0.1 ug/mL
# [7] = agonist: Pam3CSK4 (TLR2/1) 0.1 ug/mL
smiles,measurement,setting,value
CCOc1nc2cccc(C(=O)OCc3oc(=O)oc3C)c2n1Cc1ccc(-c2ccccc2-c2nc(=O)o[nH]2)cc1,NF-kB SEAP reporter activity,RAW-Dual [1]; [3],1.15
same,NF-kB SEAP reporter activity,RAW-Dual [1]; [4],0.931
O=c1cc(N2CCOCC2)oc2c1ccc1ccccc12,NF-kB SEAP reporter activity,"RAW-Dual [1]; library stock concentration (final ~1000-fold dilution): 2 mM, agonist: Imiquimod (TLR7) […]",1.04
same,NF-kB SEAP reporter activity,"RAW-Dual [1]; library stock concentration (final ~1000-fold dilution): 2 mM, agonist: MPLA (TLR4) […]",0.989
O=c1cc(N2CCOCC2)oc2c1ccc1ccccc12 (library stock concentration (final ~1000-fold dilution): 2 mM),NF-kB SEAP reporter activity,RAW-Dual [2]; agonist: LPS (TLR4) 0.1 ug/mL,1.12
same,NF-kB SEAP reporter activity,RAW-Dual [2]; [5],1
same,NF-kB SEAP reporter activity,RAW-Dual [2]; [6],0.982
same,NF-kB SEAP reporter activity,RAW-Dual [2]; [7],1.07
CC#CC(=O)N1CCC(n2c(=O)n(-c3ccc(Oc4ccccc4)cc3)c3c(N)ncnc32)C1.Cl (stereo not given) (library stock concentration (final ~1000-fold dilution): 10 mM),NF-kB SEAP reporter activity,RAW-Dual [2]; agonist: LPS (TLR4) 0.1 ug/mL,0.647
same,NF-kB SEAP reporter activity,RAW-Dual [2]; [5],0.662
same,NF-kB SEAP reporter activity,RAW-Dual [2]; [6],0.378
same,NF-kB SEAP reporter activity,RAW-Dual [2]; [7],0.517
CC#CC(=O)N1CCC(n2c(=O)n(-c3ccc(Oc4ccccc4)cc3)c3c(N)ncnc32)C1.Cl (stereo not given),NF-kB SEAP reporter activity,RAW-Dual [1]; [3],0.734
same,NF-kB SEAP reporter activity,RAW-Dual [1]; [4],0.814
CN1CCN(c2ccc(-c3ccncc3-c3cc(F)c(O)c(F)c3)cc2)CC1 (library stock concentration (final ~1000-fold dilution): 10 mM),NF-kB SEAP reporter activity,RAW-Dual [2]; agonist: LPS (TLR4) 0.1 ug/mL,0.68
same,NF-kB SEAP reporter activity,RAW-Dual [2]; [5],0.462
same,NF-kB SEAP reporter activity,RAW-Dual [2]; [6],0.553
same,NF-kB SEAP reporter activity,RAW-Dual [2]; [7],0.601
CN1CCN(c2ccc(-c3ccncc3-c3cc(F)c(O)c(F)c3)cc2)CC1,NF-kB SEAP reporter activity,RAW-Dual [1]; [3],0.71
same,NF-kB SEAP reporter activity,RAW-Dual [1]; [4],0.621
COc1ccc(-c2coc3cc(O)ccc3c2=O)cc1S(=O)(=O)O (library stock concentration (final ~1000-fold dilution): 10 mM),NF-kB SEAP reporter activity,RAW-Dual [2]; agonist: LPS (TLR4) 0.1 ug/mL,0.994
same,NF-kB SEAP reporter activity,RAW-Dual [2]; [5],1.06
same,NF-kB SEAP reporter activity,RAW-Dual [2]; [6],1.15
same,NF-kB SEAP reporter activity,RAW-Dual [2]; [7],1
COc1ccc(-c2coc3cc(O)ccc3c2=O)cc1S(=O)(=O)O,NF-kB SEAP reporter activity,RAW-Dual [1]; [3],0.962
same,NF-kB SEAP reporter activity,RAW-Dual [1]; [4],1.03
C=CC(=O)N1CCC(Oc2cc3c(Nc4ccc(Cl)c(Cl)c4F)ncnc3cc2OC)CC1,NF-kB SEAP reporter activity,RAW-Dual [1]; [3],0.323
same,NF-kB SEAP reporter activity,RAW-Dual [1]; [4],0.555
C=CC(=O)N1CCC(Oc2cc3c(Nc4ccc(Cl)c(Cl)c4F)ncnc3cc2OC)CC1 (library stock concentration (final ~1000-fold dilution): 10 mM),NF-kB SEAP reporter activity,RAW-Dual [2]; agonist: LPS (TLR4) 0.1 ug/mL,0.256
same,NF-kB SEAP reporter activity,RAW-Dual [2]; [5],0.215
same,NF-kB SEAP reporter activity,RAW-Dual [2]; [6],0.187
same,NF-kB SEAP reporter activity,RAW-Dual [2]; [7],0.26
CC(NC(=O)C(O)C(C)C)C(=O)NC1C(=O)N(C)CCc2ccccc21 (stereo not given),NF-kB SEAP reporter activity,RAW-Dual [1]; [3],0.775
same,NF-kB SEAP reporter activity,RAW-Dual [1]; [4],1.08
CC(NC(=O)C(O)C(C)C)C(=O)NC1C(=O)N(C)CCc2ccccc21 (stereo not given) (library stock concentration (final ~1000-fold dilution): 10 mM),NF-kB SEAP reporter activity,RAW-Dual [2]; agonist: LPS (TLR4) 0.1 ug/mL,1.24
same,NF-kB SEAP reporter activity,RAW-Dual [2]; [5],0.905
same,NF-kB SEAP reporter activity,RAW-Dual [2]; [6],1.07
same,NF-kB SEAP reporter activity,RAW-Dual [2]; [7],0.882
NC(=O)c1noc(C(CCCC2CCCCC2)CC(=O)NO)n1 (stereo not given) (library stock concentration (final ~1000-fold dilution): 10 mM),NF-kB SEAP reporter activity,RAW-Dual [2]; agonist: LPS (TLR4) 0.1 ug/mL,0.635
same,NF-kB SEAP reporter activity,RAW-Dual [2]; [5],0.558
same,NF-kB SEAP reporter activity,RAW-Dual [2]; [6],0.367
same,NF-kB SEAP reporter activity,RAW-Dual [2]; [7],0.209
NC(=O)c1noc(C(CCCC2CCCCC2)CC(=O)NO)n1 (stereo not given),NF-kB SEAP reporter activity,RAW-Dual [1]; [3],0.905
same,NF-kB SEAP reporter activity,RAW-Dual [1]; [4],0.709
CN1CCc2nc(C(=O)NC3CC(C(=O)N(C)C)CCC3NC(=O)C(=O)Nc3ccc(Cl)cn3)sc2C1.Cc1ccc(S(=O)(=O)O)cc1.O (stereo not given) (library stock concentration (final ~1000-fold dilution): 10 mM),NF-kB SEAP reporter activity,RAW-Dual [2]; agonist: LPS (TLR4) 0.1 ug/mL,1.02
same,NF-kB SEAP reporter activity,RAW-Dual [2]; [5],1.02
same,NF-kB SEAP reporter activity,RAW-Dual [2]; [6],1.01
same,NF-kB SEAP reporter activity,RAW-Dual [2]; [7],1.31
CN1CCc2nc(C(=O)NC3CC(C(=O)N(C)C)CCC3NC(=O)C(=O)Nc3ccc(Cl)cn3)sc2C1.Cc1ccc(S(=O)(=O)O)cc1.O (stereo not given),NF-kB SEAP reporter activity,RAW-Dual [1]; [3],0.978
same,NF-kB SEAP reporter activity,RAW-Dual [1]; [4],1.04
